These results are taken from patent US20070065447A1.

Experiment [1] has as its target T1, GST-γ2III-2 (a.a. residues 392-555) (human) (UniProt Q13753).
T1 sequence: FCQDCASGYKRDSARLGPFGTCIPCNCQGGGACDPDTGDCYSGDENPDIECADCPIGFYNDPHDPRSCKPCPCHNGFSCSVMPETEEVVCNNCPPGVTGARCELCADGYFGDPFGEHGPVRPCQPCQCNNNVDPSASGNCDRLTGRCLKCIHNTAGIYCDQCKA
Nature of the experiment: direct ELISA, 100 ng/well coated GST-γ2III fragment.

Experiment [2] addresses T2, GST-γ2III-4 (a.a. residues 392-494) (human) (UniProt Q13753).
T2 sequence: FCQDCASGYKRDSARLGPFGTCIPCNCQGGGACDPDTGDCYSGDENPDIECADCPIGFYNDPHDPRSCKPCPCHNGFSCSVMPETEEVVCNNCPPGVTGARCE
The experiment is described as above.

Experiment [3] addresses T1, GST-γ2III-2 (a.a. residues 392-555) (human). Nature of the experiment: direct ELISA, fusion proteins coated at 100 ng/well, A405 (Example 3, second experiment).
Experiment [4] deals with T2, GST-γ2III-4 (a.a. residues 392-494) (human). The description is as above.
Experiment [5] addresses GST-γ2III fusion protein (glutathione S-transferase:γ2 DIII fragment fusion protein, human laminin γ2 amino acid residues 392-567) (human). Described as above.
Experiment [6] deals with T3, cyclic peptide X252 (Ln-5 residues 394-415 + R) (human).
T3 sequence (peptide, Cys-Cys disulfide bond (cyclic peptide)): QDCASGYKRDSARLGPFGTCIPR
Nature of the experiment: direct ELISA on coated cyclic peptides (legend of FIG. 9).

For experiment [7] the target is unchanged. Nature of the experiment: direct ELISA on coated cyclic peptides. A general note: An ELISA detects its analyte on a solid surface through an enzyme-linked reagent.
For experiment [8], the target named is GST-γ2III fusion protein (glutathione S-transferase:γ2 DIII fragment fusion protein, human laminin γ2 amino acid residues 392-567) (human). Description: direct ELISA, 100 ng/well coated GST-γ2III.
The target is the same in experiment [9]. Nature of the experiment: surface plasmon resonance (BIAcore): first step to about 940 RU, then LN-5 antigen (GST-γ2DIII) at 20, 50, 200, 500 and 2000 nM.
For experiment [10], the target named is T3, cyclic peptide X252 (Ln-5 residues 394-415 + R) (human). Nature of the experiment: direct ELISA, peptide coated at 50 µg/ml (controls 5 µg/ml), antibody 100 ng/well, A450/620, mean of three ± SD.
Experiment [11] concerns the target GST-γ2III fusion protein (glutathione S-transferase:γ2 DIII fragment fusion protein, human laminin γ2 amino acid residues 392-567) (human). The description is as above.
For experiment [12] the target is unchanged. Description: SPR (BIAcore). A general note: SPR reads the build-up and loss of mass on a sensor chip optically.
The target of experiment [13] is T1, GST-γ2III-2 (a.a. residues 392-555) (human). Nature of the experiment: direct ELISA, fusion proteins coated at 100 ng/well, A405 (Example 3, first experiment).
For experiment [14], the target named is T2, GST-γ2III-4 (a.a. residues 392-494) (human). The description is as above.
Experiment [15] concerns the target GST-γ2III fusion protein (glutathione S-transferase:γ2 DIII fragment fusion protein, human laminin γ2 amino acid residues 392-567) (human). Described as above.
Experiment [16] shares this target. Description: competition ELISA on coated GST-γ2III; biotinylated 4G1 0.05 µg/well, unlabeled competitor mAb 5 µg/well; % of the well without competitor.
Experiment [17] has as its target T1, GST-γ2III-2 (a.a. residues 392-555) (human). Description: direct ELISA of Example 3, signal as % of the signal on GST-γ2III 392-567 (100 %).
The target in experiment [18] is T2, GST-γ2III-4 (a.a. residues 392-494) (human). The description is as above.
In experiment [19] the target is GST-γ2III fusion protein (glutathione S-transferase:γ2 DIII fragment fusion protein, human laminin γ2 amino acid residues 392-567) (human). The experiment is described as above.
Experiment [20] has the same target. Nature of the experiment: competition ELISA on coated GST-γ2III (0.25 µg/well); biotinylated mAb 0.05 µg/well, unlabeled competitor mAb 5 µg/well; A405 as % of the well without competitor.
Experiment [21] has the same target. Nature of the experiment: surface plasmon resonance (BIAcore): LN-5 antigen (GST-γ2DIII) at 20, 50, 200, 500 and 2000 nM ('Ag binding').
Experiment [22] deals with T4, GST-γ2III-7 (a.a. residues 461-653) (human) (UniProt Q13753).
T4 sequence: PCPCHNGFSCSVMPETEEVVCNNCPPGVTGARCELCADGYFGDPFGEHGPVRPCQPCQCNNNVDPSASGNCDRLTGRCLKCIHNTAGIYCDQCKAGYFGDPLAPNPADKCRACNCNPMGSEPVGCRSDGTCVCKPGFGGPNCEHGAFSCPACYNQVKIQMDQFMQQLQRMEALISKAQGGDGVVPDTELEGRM
Nature of the experiment: direct ELISA, 100 ng/well coated GST-γ2III fragment.

The target of experiment [23] is T5, GST-γ2III-20 (a.a. residues 461-534) (human) (UniProt Q13753).
T5 sequence: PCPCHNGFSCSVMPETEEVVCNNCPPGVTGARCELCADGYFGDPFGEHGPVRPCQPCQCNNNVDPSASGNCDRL
The experiment is described as above.

In experiment [24] the target is T4, GST-γ2III-7 (a.a. residues 461-653) (human). Nature of the experiment: direct ELISA, fusion proteins coated at 100 ng/well, A405 (Example 3, second experiment).
In experiment [25] the target is T5, GST-γ2III-20 (a.a. residues 461-534) (human). The experiment is described as above.
Experiment [26] addresses GST-γ2III fusion protein (glutathione S-transferase:γ2 DIII fragment fusion protein, human laminin γ2 amino acid residues 392-567) (human). Description: competition ELISA on coated GST-γ2III; competitor of biotinylated mAb 5D5.
For experiment [27] the target is unchanged. Description: surface plasmon resonance (BIAcore): first step to about 1000 RU, then LN-5 antigen (GST-γ2DIII) at 20, 50, 200, 500 and 2000 nM ('Ag binding').
The target in experiment [28] is T4, GST-γ2III-7 (a.a. residues 461-653) (human). Nature of the experiment: direct ELISA, fusion proteins coated at 100 ng/well, A405 (Example 3, first experiment).
For experiment [29] the target is unchanged. Nature of the experiment: direct ELISA of Example 3, signal as % of the signal on GST-γ2III 392-567 (100 %).
The target in experiment [30] is T5, GST-γ2III-20 (a.a. residues 461-534) (human). The description is as above.

These are yes or no findings as the source states them, for the method shown. Some results given as binding are weak or reduced against the parent protein; the word gives no strength. For some assays here: Tags and fused reporters may be left off the sequences shown.

B1: mAb 4G1 (antibody, V domains shown)
VH: EVKLEESGGGLVQPGGSMKLSCVASGFTFSNFWMNWVRQSPEKGLEWVAEIRLKSNNYATHYAESLKGRFTISRDDSKSNVYLQMNNLRPEDTGIYYCTRDYYGSSFAYWGQGTLVTVSA
VL: DIVMTQAAFSNPVTLGTSASISCRSSKSLLHNIGITYLFWYLQKPGQSPQLLIYQMSKLASGVPDRFSGSGSGTDFTLRISRVEAEDVGIYYCAQNLELPPTFGSGTKLEIK
As for B1, the binding entry in experiment [1], in experiment [2], in experiment [3], in experiment [4], in experiment [5] and in [6] was “binds” in each case. The binding result in experiment [7], in experiment [8], in experiment [9], in [10], in experiment [11] and in experiment [12] was “binds” throughout. For the same molecule, the binding entry in experiment [13], in experiment [14], in [15], in experiment [16], in [17] and in experiment [18] was “binds” each time. The binding result in experiment [19], in experiment [20] and in experiment [21] was “binds” each time.

B2: mAb 6C12 (antibody, V domains shown)
VH: DVHLQESGPGLVKPSQSLSLTCTVTGYSITSDYAWNWIRQFPGNRLEWMGYITYSGGTNYNPSLKSRISFTRDTSKNQFFLQLNSVTTEDTATYYCANNFYGNFFDYWGQGTTLTVSS
VL: QIVLTQSPAIMSASPGEKVTMTCSASSSVSYIHWYQQKSGTSPKRWIYDTSKLASGVPARFSGSGSGTSYSLTISSMQAEDAATYYCQQWSSSPPTFGGGTKLEIK
Consider B2, for which the binding entry in experiment [22], in experiment [1], in experiment [23], in experiment [24], in [3] and in [25] was “binds” throughout. Further, the binding entry is “no binding” in experiment [4]; “binds” in [5]; “binds” in experiment [26]; “binds” in experiment [8]; “binds” in experiment [27]; “binds” in experiment [11]. For the same molecule, the binding result in [12] is recorded as “binds”; in [28], “binds”; in [13] it was “binds”; in experiment [14] it was “no binding”; in [15], “binds”; in experiment [29], “binds”. Also, the binding entry in experiment [17] was “binds”; in experiment [30] it was “binds”; in experiment [18], “no binding”; in [19], “binds”; in experiment [20] it was “binds”.
